Data: the supplement of paper PMC12632987
The full ranking holds about 4,500 sequences; the median of “median log2 fold change of GCK-ALFA target abundance (FLAG IP / Myc IP barcode read proportion)” is about 0.078, and the lowest 2% start at about -0.6. This is one part of the list.

B1: GBRAP_166_4913 (protein)
chain: SMEELVEKAKKEIEELVKKMPELDEEGQIEALIEIAEIIEKLKEAGASEEEILEVLRHLAESLKEEGLDVRHYMAIVAAAAGFDEEMMDKIDEIVEEVLA
B2: GBRAP_128_3588 (protein)
chain: SSEEVREYVRKLLEAMKTANAEERKELARELFAYFATLSLEEQEAAVETIKELLPELSAEDLDVLADAAREARPQLSPERAELVADLEVEALNEAVEKEE
B3: GBRAP_160_4071 (protein)
chain: SAALEKLKKEVEELVEEAKKLIEGETPEQRLVIIEVELGNIILEFDSNEEVSDELADKIAEIADETVEEFRANPDMSEEEVKKLLEETRDKILKLIDEAE
B4: GBRAP_78_6669 (protein)
chain: ELEEKVEEALKLVSEAARLSKVLPEEERNALLDHLVDAMSDLLESIEEGIKLENVEEALKHLNEAEKLLEKLNSPEAEPILKLVKEAKELVEEVIKELKK
B5: GBRAP_128_3357 (protein)
chain: LDEEFLEEVRALWEEIVNSDVETTYELTKELLRKIAEASPEEREAAVEIAHEYLPKLTAEKLEAVADAIREMWPEFDPYTRELMADLEVEALNLAEEKEE
B6: GBRAP_35_5531 (protein)
chain: NSDEEIAEMLLNTMEDLVLALPDVSPEEQLALARHLIRLARDFIELKTKSAELIKRLIEVLERAIELIKASDLPPEEKAALIAELEKLKEEAEKLLKEVE
B7: GBRAP_125_3032 (protein)
chain: EKEELAKNLALIAKALGFSEDDVKELVELAKKHGIKGAMIAIALAEGNEELAELLEKLTEEEVAKVVKELAKYLEENPDLTPEEVLEKLKEIAEKAVKES
B8: GBRAP_125_2983 (protein)
chain: PTPAQLADLATFAKALGLDDAEAAEAAALAAAHSLKQTVYAILAALGEEELADLVAKLTEAEVAEVLAAVAAYLAAHPDATPEEVLARFRELAEAALAKR

These binders were tested against GABARAP, O95166 (assay: median log2 fold change of GCK-ALFA target abundance (FLAG IP / Myc IP barcode read proportion) (log2 ratio); each designed protein is fused to an ALFA-tag nanobody in HEK293 cells to bring the named protein to FLAG-tagged glucokinase (GCK); Myc marks an untargeted standard; higher = target protein stabilised (more abundant)). Conditions: target protein: 3xFLAG-MCP-GCK-ALFA reporter; HEK293 landing pad (RPLP).
GABARAP, O95166, sequence (O95166 whole entry, the tested form may be a part): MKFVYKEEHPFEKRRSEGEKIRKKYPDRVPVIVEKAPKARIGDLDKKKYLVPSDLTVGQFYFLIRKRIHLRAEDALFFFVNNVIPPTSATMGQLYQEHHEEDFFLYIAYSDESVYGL
Method in brief: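 The readout is target abundance, the per-binder median log2 ratio of FLAG to Myc barcode read proportions. It came from HEK293 landing-pad cells carrying a recombined ALFA-nanobody-fused binder library, induced with 2 μg mL^−1 doxycycline and transfected with a plasmid for a FLAG-tagged target and a Myc-tagged standard. After 48 h, lysates were immunoprecipitated with anti-FLAG and anti-Myc, and circular RNA barcodes were reverse transcribed, amplified and sequenced. Each barcode needed a proportion of at least 10^−7 in both replicates and each binder at least 3 barcodes per replicate, a pseudocount of 10^−6 was added, and the replicates were pooled.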
In the case of B1, the “median log2 fold change” value is reported as 0.0349. In the case of B2, the “median log2 fold change” value is reported as -0.153. B3 was tested, and the “median log2 fold change” value was -0.191. B4 was tested, and the “median log2 fold change” value was 0.177. With B5 the “median log2 fold change” value was 0.152. With B6 the “median log2 fold change” value was 0.118. With B7 the “median log2 fold change” value was 0.147. B8 was tested, and the “median log2 fold change” value was -0.141.
